# The other results are listed elsewhere or left out. Repeats are few or missing, and single values can be far off.
# Columns and labels:
# Assay in all cases: cell count relative to DMSO control; melanoma cells; higher = more viable cells
# Conditions in all cases: library dose: low library concentration; 72 h
# [1] = system: MZ2-MEL
# [2] = system: MeWo
# [3] = system: RPMI7951
# [4] = system: RVH-421
# [5] = system: SkMel28
# [6] = system: SkMel2
# [7] = system: SkMel30
# [8] = system: SkMel5
# [9] = system: UACC257
# [10] = system: UACC62
# 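Note: cell number obtained by counting DAPI-stained nuclei in high-throughput microscope images with image analysis software, screen run in 1,536-well plates.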
SMILES,cell count [1],cell count [2],cell count [3],cell count [4],cell count [5],cell count [6],cell count [7],cell count [8],cell count [9],cell count [10]
"CN1CCN(c2ccc3nc(-c4c(N)c5c(F)cccc5[nH]c4=O)[nH]c3c2)CC1 [Dovitinib] + CCN(CC)CCCCNc1ncc2cc(-c3cc(OC)cc(OC)c3)c(NC(=O)NC(C)(C)C)nc2n1 [PD173074] (first compound 0.1 µM, partner dose 0.1 µM)",96.3%,96.5%,127%,100%,89.5%,101%,80.5%,107%,102%,117%
"CN1CCN(c2ccc3nc(-c4c(N)c5c(F)cccc5[nH]c4=O)[nH]c3c2)CC1 [Dovitinib] + CN(C)S(=O)(=O)c1ccc2c(c1)/C(=C/c1cc3c([nH]1)CCCC3)C(=O)N2 [SU6656] (first compound 0.1 µM, partner dose 0.4 µM)",81.2%,85.9%,111%,96.5%,77.1%,115%,50.6%,79.1%,73.7%,81.5%
"CS(=O)(=O)CCNCc1ccc(-c2ccc3ncnc(Nc4ccc(OCc5cccc(F)c5)c(Cl)c4)c3c2)o1 [lapatinib] + Cn1cncc1[C@@](N)(c1ccc(Cl)cc1)c1ccc2c(c1)c(-c1cccc(Cl)c1)cc(=O)n2C [tipifarnib] (first compound 0.8 µM, partner dose 0.01 µM)",109%,89.3%,92.9%,79.9%,84.9%,79.4%,105%,110%,68.2%,75.5%
"C=CCNC1=C2C[C@@H](C)C[C@H](OC)[C@H](O)[C@@H](C)/C=C(\C)[C@H](OC(N)=O)[C@@H](OC)/C=C\C=C(/C)C(=O)NC(=CC1=O)C2=O [Tanespimycin] + CCN(CC)CCCCNc1ncc2cc(-c3cc(OC)cc(OC)c3)c(NC(=O)NC(C)(C)C)nc2n1 [PD173074] (first compound 0.002 µM, partner dose 0.1 µM)",101%,93.2%,95.8%,172%,84.9%,104%,107%,100%,78.1%,88.3%
"CNC(=O)c1cc(Oc2ccc(NC(=O)Nc3ccc(Cl)c(C(F)(F)F)c3)cc2)ccn1 [sorafenib] + COc1cc(N2CCC(N3CCN(C)CC3)CC2)ccc1Nc1ncc(Cl)c(Nc2ccccc2S(=O)(=O)C(C)C)n1 [NVP-TAE684] (first compound 0.4 µM, partner dose 0.08 µM)",90.3%,85.6%,92.2%,107%,93%,96.7%,64.2%,91%,87.5%,94.4%
"C=CCNC1=C2C[C@@H](C)C[C@H](OC)[C@H](O)[C@@H](C)/C=C(\C)[C@H](OC(N)=O)[C@@H](OC)/C=C\C=C(/C)C(=O)NC(=CC1=O)C2=O [Tanespimycin] + O=C(O)c1ccc(-c2c[nH]c3ncc(-c4ccccc4)cc23)cc1C1CCCC1 [GSK650394] (first compound 0.002 µM, partner dose 0.16 µM)",91.3%,87.7%,88.3%,107%,110%,84.1%,104%,99.9%,75.9%,84.7%
"CNC(=O)c1cc(Oc2ccc(NC(=O)Nc3ccc(Cl)c(C(F)(F)F)c3)cc2)ccn1 [sorafenib] + O=C1NC(=O)/C(=C/c2ccc(-c3ccc(F)cc3O)o2)S1 [AS252424] (first compound 0.4 µM, partner dose 1 µM)",95.2%,97.2%,102%,161%,93.9%,105%,85.2%,95.2%,76.1%,99.6%
"CN1CCN(c2ccc3nc(-c4c(N)c5c(F)cccc5[nH]c4=O)[nH]c3c2)CC1 [Dovitinib] + O=C(O)C(=O)Nc1sc2c(c1C(=O)O)CCNC2 [TCS401] (first compound 0.1 µM, partner dose 1.66667 µM)",91.7%,108%,100%,116%,85.2%,106%,98.3%,98.6%,82.2%,89.2%
"CNC(=O)c1cc(Oc2ccc(NC(=O)Nc3ccc(Cl)c(C(F)(F)F)c3)cc2)ccn1 [sorafenib] + O=C(O)C(=O)Nc1sc2c(c1C(=O)O)CCNC2 [TCS401] (first compound 0.4 µM, partner dose 1.66667 µM)",93.4%,105%,83.6%,88.1%,105%,102%,94.5%,97.9%,95.3%,85.1%
"CS(=O)(=O)CCNCc1ccc(-c2ccc3ncnc(Nc4ccc(OCc5cccc(F)c5)c(Cl)c4)c3c2)o1 [lapatinib] + c1cc(-c2cnn3cc(-c4ccc(OCCN5CCCCC5)cc4)cnc23)ccn1 [Dorsomorphin] (first compound 0.8 µM, partner dose 0.4 µM)",93.6%,86.9%,82.3%,124%,109%,102%,100%,76%,91.3%,93.4%
"C=CCNC1=C2C[C@@H](C)C[C@H](OC)[C@H](O)[C@@H](C)/C=C(\C)[C@H](OC(N)=O)[C@@H](OC)/C=C\C=C(/C)C(=O)NC(=CC1=O)C2=O [Tanespimycin] + Cn1cncc1[C@@](N)(c1ccc(Cl)cc1)c1ccc2c(c1)c(-c1cccc(Cl)c1)cc(=O)n2C [tipifarnib] (first compound 0.002 µM, partner dose 0.01 µM)",109%,81.4%,43.5%,76.1%,93%,83.3%,83.5%,98.5%,51.8%,78.4%
"CNC(=O)c1cc(Oc2ccc(NC(=O)Nc3ccc(Cl)c(C(F)(F)F)c3)cc2)ccn1 [sorafenib] + CC1(C)NC(=O)N(c2ccc([N+](=O)[O-])c(C(F)(F)F)c2)C1=O [nilutamide] (first compound 0.4 µM, partner dose 1 µM)",100%,99.2%,91%,98.6%,88.1%,102%,93.3%,97.6%,79%,87.9%
"C[C@@H](Oc1cc(-c2cnn(C3CCNCC3)c2)cnc1N)c1c(Cl)ccc(F)c1Cl [Crizotinib] + O=C(O)c1ccc(-c2c[nH]c3ncc(-c4ccccc4)cc23)cc1C1CCCC1 [GSK650394] (first compound 0.2 µM, partner dose 0.16 µM)",95%,86%,111%,107%,89.2%,87.5%,99%,90.9%,88.1%,98.4%
"C=CCNC1=C2C[C@@H](C)C[C@H](OC)[C@H](O)[C@@H](C)/C=C(\C)[C@H](OC(N)=O)[C@@H](OC)/C=C\C=C(/C)C(=O)NC(=CC1=O)C2=O [Tanespimycin] + Cc1ccc(NC(=O)c2cccc(N(C)C)c2)cc1NC(=O)c1ccc(O)cc1 [ZM336372] (first compound 0.002 µM, partner dose 2 µM)",77.5%,112%,92.9%,107%,99.5%,110%,96.2%,105%,103%,96.6%
"C=CCNC1=C2C[C@@H](C)C[C@H](OC)[C@H](O)[C@@H](C)/C=C(\C)[C@H](OC(N)=O)[C@@H](OC)/C=C\C=C(/C)C(=O)NC(=CC1=O)C2=O [Tanespimycin] + CN(NC(=O)CC(=O)NN(C)C(=S)c1ccccc1)C(=S)c1ccccc1 [STA4783] (first compound 0.002 µM, partner dose 0.006 µM)",103%,93.5%,107%,101%,98.8%,95.5%,105%,83.1%,82.3%,91.7%
"CN1CCN(c2ccc3nc(-c4c(N)c5c(F)cccc5[nH]c4=O)[nH]c3c2)CC1 [Dovitinib] + CO[C@@H]1[C@H](N(C)C(=O)c2ccccc2)C[C@H]2O[C@]1(C)n1c3ccccc3c3c4c(c5c6ccccc6n2c5c31)C(=O)NC4 [Midostaurin] (first compound 0.1 µM, partner dose 0.08 µM)",94%,87.4%,106%,97.1%,106%,89.1%,92.4%,84.4%,79.5%,87.6%
"CNC(=O)c1cc(Oc2ccc(NC(=O)Nc3ccc(Cl)c(C(F)(F)F)c3)cc2)ccn1 [sorafenib] + COc1cc2c(Oc3ccc4[nH]c(C)cc4c3F)ncnc2cc1OCCCN1CCCC1 [cediranib] (first compound 0.4 µM, partner dose 0.4 µM)",93.1%,104%,95.6%,99.9%,89.7%,98.4%,91%,86.4%,76.7%,96.7%
"CN1CCN(c2ccc3nc(-c4c(N)c5c(F)cccc5[nH]c4=O)[nH]c3c2)CC1 [Dovitinib] + COC(=O)c1sccc1S(=O)(=O)Nc1ccc(Nc2ccccc2)cc1OC [GSK0660] (first compound 0.1 µM, partner dose 1 µM)",97.6%,103%,96%,98.3%,89%,97.9%,80.4%,95.4%,89.2%,89.1%
